# Source: paper PMC4931317, “UtpA and UtpB chaperone nascent pre-ribosomal RNA and U3 snoRNA to initiate eukaryotic ribosome assembly” (Nature Communications, 2016)
# Chains of the proteins cited; added tags and fusions are not shown.
# UniProt P42945: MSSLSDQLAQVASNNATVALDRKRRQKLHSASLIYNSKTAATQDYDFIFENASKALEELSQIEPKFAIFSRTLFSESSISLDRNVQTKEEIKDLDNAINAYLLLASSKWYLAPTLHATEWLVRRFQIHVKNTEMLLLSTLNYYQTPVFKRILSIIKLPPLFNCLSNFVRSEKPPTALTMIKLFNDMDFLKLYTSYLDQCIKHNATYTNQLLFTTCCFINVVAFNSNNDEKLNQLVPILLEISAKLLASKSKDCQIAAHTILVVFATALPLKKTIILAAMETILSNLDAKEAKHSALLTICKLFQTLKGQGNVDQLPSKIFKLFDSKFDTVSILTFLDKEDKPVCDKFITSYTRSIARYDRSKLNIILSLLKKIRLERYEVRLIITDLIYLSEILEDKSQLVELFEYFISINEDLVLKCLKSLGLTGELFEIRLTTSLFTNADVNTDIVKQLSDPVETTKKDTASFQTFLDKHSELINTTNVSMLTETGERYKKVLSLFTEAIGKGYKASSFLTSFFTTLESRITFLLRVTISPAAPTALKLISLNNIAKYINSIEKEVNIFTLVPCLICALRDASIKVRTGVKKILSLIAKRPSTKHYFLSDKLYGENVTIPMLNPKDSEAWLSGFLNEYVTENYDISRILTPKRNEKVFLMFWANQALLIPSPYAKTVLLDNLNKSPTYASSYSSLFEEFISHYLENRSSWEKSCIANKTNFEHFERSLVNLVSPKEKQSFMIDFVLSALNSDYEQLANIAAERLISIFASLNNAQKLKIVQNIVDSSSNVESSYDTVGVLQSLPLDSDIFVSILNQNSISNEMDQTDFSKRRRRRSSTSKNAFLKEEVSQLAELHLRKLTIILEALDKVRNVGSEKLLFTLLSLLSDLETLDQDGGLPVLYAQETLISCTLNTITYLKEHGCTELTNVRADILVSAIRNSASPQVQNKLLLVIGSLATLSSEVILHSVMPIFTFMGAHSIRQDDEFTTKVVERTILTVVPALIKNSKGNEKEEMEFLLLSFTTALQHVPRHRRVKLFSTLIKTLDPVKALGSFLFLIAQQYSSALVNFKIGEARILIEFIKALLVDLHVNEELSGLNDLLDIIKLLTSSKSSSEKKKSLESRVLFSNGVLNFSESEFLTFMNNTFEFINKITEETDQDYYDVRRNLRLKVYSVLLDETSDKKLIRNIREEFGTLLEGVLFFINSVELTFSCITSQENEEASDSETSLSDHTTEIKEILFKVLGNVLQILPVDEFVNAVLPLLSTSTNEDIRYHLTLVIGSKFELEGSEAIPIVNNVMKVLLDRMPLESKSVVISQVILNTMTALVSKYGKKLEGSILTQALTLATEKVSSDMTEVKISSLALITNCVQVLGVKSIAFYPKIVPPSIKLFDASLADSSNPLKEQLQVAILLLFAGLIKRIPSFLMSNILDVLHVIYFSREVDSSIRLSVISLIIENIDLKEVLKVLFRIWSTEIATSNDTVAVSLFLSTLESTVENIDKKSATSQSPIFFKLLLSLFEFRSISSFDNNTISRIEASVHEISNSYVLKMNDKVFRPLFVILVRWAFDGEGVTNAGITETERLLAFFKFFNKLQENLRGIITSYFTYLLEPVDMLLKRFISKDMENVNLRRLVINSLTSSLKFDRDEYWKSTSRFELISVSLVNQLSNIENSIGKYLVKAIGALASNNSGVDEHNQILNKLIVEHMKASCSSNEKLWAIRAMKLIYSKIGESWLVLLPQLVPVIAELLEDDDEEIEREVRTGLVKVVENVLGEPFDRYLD
# Results are given in words; binding and its absence hold for the method and conditions named. For part of these data: Binding seen in cells or lysates may run through a third protein. Some binding calls cover weakened binding; strength is not graded here. Tags and fused reporters may be left off the sequences shown.
# T1: His14-3C-Utp12 (recombinant) (S. cerevisiae) (UniProt Q12220)
# T1 sequence: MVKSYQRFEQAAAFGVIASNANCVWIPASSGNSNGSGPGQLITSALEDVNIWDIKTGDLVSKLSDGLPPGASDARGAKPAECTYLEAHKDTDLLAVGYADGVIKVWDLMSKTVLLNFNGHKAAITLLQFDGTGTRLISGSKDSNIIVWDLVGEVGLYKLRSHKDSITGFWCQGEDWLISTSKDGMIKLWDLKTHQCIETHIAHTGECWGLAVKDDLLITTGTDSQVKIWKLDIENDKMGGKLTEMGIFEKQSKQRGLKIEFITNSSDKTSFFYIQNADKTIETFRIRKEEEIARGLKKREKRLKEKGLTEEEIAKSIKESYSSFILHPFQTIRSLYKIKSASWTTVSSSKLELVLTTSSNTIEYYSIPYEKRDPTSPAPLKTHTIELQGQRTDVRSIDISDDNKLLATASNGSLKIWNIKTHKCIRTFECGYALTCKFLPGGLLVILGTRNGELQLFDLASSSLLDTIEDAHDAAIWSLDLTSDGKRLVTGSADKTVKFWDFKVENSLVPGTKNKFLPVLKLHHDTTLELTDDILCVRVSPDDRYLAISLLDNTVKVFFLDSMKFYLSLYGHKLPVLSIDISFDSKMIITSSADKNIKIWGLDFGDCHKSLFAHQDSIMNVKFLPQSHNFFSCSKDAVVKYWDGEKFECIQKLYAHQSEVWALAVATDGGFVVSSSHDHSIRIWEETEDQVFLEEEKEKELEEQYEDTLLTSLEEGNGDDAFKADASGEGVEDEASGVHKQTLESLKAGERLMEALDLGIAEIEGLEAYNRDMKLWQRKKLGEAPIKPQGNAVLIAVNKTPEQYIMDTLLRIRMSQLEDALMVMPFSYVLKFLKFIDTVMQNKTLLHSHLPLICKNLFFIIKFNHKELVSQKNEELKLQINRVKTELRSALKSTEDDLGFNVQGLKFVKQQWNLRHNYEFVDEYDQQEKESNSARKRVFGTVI
# How the values were obtained:
# Utp10-3C-GFP [1] = target: T2, Utp10-3C-GFP (S. cerevisiae, UniProt P42945 1-1769); test: pull-down; UtpA held via Utp10-GFP on anti-GFP nanobody sepharose (purified at 200 mM NaCl), then incubated 7 h at 4 °C in buffer with 400 mM NaCl; 3C elution; Coomassie-stained SDS-PAGE
# T2 construct: Utp10, S. cerevisiae, subunit of UtpA (200 kDa); GFP is joined through a 3C protease site; it holds the protein on the beads in a1-a3 and is cleaved off by 3C on elution, so it is absent in the SEC step and in the DSS cross-linking (a6); also called Utp10-GFP; Utp10-sbp-H14-3C-GFP; source: S. cerevisiae YSK32, C-terminal tag integrated in the genome, endogenous level; captured from lysate on …
# Utp10-3C-GFP [2] = target: T2, Utp10-3C-GFP; test: pull-down; UtpA held via Utp10-GFP on anti-GFP nanobody sepharose (purified at 200 mM NaCl), then incubated 7 h at 4 °C in buffer with 800 mM NaCl; 3C elution; Coomassie-stained SDS-PAGE
# Utp10-3C-GFP [3] = target: T2, Utp10-3C-GFP; test: pull-down + SEC; endogenous UtpA from YSK32 lysate captured via Utp10-GFP on anti-GFP nanobody sepharose; 50 mM HEPES-NaOH pH 7.6, 200 mM NaCl, 1 mM EDTA, 4 °C; eluted with TEV and 3C protease; Superose 6; peak fraction on Coomassie-stained SDS-PAGE
# [4] = target: T1, His14-3C-Utp12 (recombinant) (S. cerevisiae); test: SEC; Utp12/Utp13/StrepII-Sumo-Utp21/Utp1 co-expressed in E. coli and purified by the His14 tag on Utp12; main peak fraction of the size-exclusion run; 50 mM HEPES-NaOH pH 7.6, 300 mM NaCl; both purified
# [5] = target: T1, His14-3C-Utp12 (recombinant) (S. cerevisiae); test: SEC; Utp12 and Utp13 co-expressed in E. coli and purified; main peak of the preparative run and analytical run (500 μl of 0.25 μM Utp12/Utp13, Superose 6 Increase, 50 mM HEPES-NaOH pH 7.7, 300 mM NaCl, 1 mM EDTA); both purified
# [6] = target: T1, His14-3C-Utp12 (recombinant) (S. cerevisiae); test: cross-linking; DSS (0.2, 0.4 and 0.8 mM, H12/D12) cross-linking of SEC-purified recombinant UtpBΔUtp6ΔUtp18, 0.2 mg/ml, room temperature, 30 min, 50 mM HEPES-NaOH pH 7.7, 300 mM NaCl, 1 mM EDTA; cross-linked peptides found by mass spectrometry (pLink); both purified
Binder,binding (Utp10-3C-GFP [1]),binding (Utp10-3C-GFP [2]),binding (Utp10-3C-GFP [3]),binding [4],binding [5],binding [6]
"Utp15-3myc-TEV-mCherry-3FLAG (overexpressed) (natural protein, S. cerevisiae, UniProt Q04305 1-513, looked up, Utp15, S. cerevisiae, subunit of UtpA; Captured by mCherry in a4; the complex is eluted by TEV cleavage, so mCherry-3FLAG is off in the SEC step (a5); also called Utp15-TEV-mCherry; Utp15-mCherry; source: S. cerevisiae YSK122, overexpressed (galactose promoter); captured from lysate on anti-mCherry nanobody sepharose, TEV elution, SEC; not shown: 3myc, C-terminal, kept; mCherry, C-terminal, kept; …) MSTARPRIITSKAPLLPQQTTPEQRYWRQYTSAQLVKEHNSVTHISFNPQHPHDFAVTSSTRVQIFSSRTRQVIKTFSRFKDVVYSASFRSDGKLLCAGDATGLVSVYDSYNPRTILLSINASTHPTHVTKFHTQDNKILATASDDRVTRLWDISNAYEPQLELTGATDYVRTLSFIPAAPHLVATGSYDGLIRLYDTRSSGSTPIYSLNHDQPVENVIAVSPTQIVSCGGNNFKVWDLTSNKKLYERGNFNKAVTCLDYVENFDSPMQSALIASSLDGHVKVFDPLDNFQVKFGWKFSGPVLSCAVSPSTAQGNRHLVAGLSSGLLAIRTKKKEKRSSDKENAPASFNKNAKSNNFQRMMRGSEYQGDQEHIIHNDKVRSQRRMRAFERNINQFKWSEALDNAFVPGMAKELTLTVLQELRKRGKVRVALYGRDESTLEPLLNWCLKGIEDVRSASIVADWVAVVLELYGNTLESSPVLQELMIDLKTKVRHEIHKSKEAQRIEGMLQLLTS",binds,no binding (condition: 800 mM NaCl),binds,–,–,–
"Utp9 (natural protein, S. cerevisiae, UniProt P38882 1-575, looked up, Utp9, S. cerevisiae, subunit of UtpA; No tag is named for it in either strain; strains are in Supplementary Data 1; source: endogenous, S. cerevisiae YSK32, co-purified with Utp10-GFP; overexpressed (galactose promoter) in S. cerevisiae YSK122, co-purified with Utp15-mCherry) MGSSLDLVASFSHDSTRFAFQASVAQKNNVDIYPLNETKDYVVNSSLVSHIDYETNDMKVSDVIFFGWCSDLIDTQSSNIKRKLDEDEGTGESSEQRCENFFVNGFPDGRIVVYSSNGKDIVNIIKNKKEILGADTDESDIWILDSDKVVKKLQYNNSKPLKTFTLVDGKDDEIVHFQILHQNGTLLVCIITKQMVYIVDPSKRRPSTKYSFEISDAVACEFSSDGKYLLIANNEELIAYDLKEDSKLIQSWPVQVKTLKTLDDLIMALTTDGKINNYKIGEADKVCSIVVNEDLEIIDFTPINSKQQVLISWLNVNEPNFESISLKEIETQGYITINKNEKNNADEADQKKLEEKEEEAQPEVQHEKKETETKINKKVSKSDQVEIANILSSHLEANSTEILDDLMSGSWTEPEIKKFILTKINTVDHLSKIFLTISKSITQNPWNEENLLPLWLKWLLTLKSGELNSIKDKHTKKNCKHLKSALRSSEEILPVLLGIQGRLEMLRRQAKLREDLAQLSMQEGEDDEIEVIEHSNVISNPLQDQASPVEKLEPDSIVYANGESDEFVDASEYKD",binds,no binding (condition: 800 mM NaCl),binds,–,–,–

# Continued, values first:
binding (Utp10-3C-GFP [1]),binding (Utp10-3C-GFP [2]),binding (Utp10-3C-GFP [3]),binding [4],binding [5],binding [6],Binder
no binding (condition: 400 mM NaCl),no binding (condition: 800 mM NaCl),binds,–,–,–,"Utp4 (protein, UniProt Q06679 1-776) MSSSLLSVLKEKSRSLKIRNKPVKMTSQERMIVHRCRFVDFTPATITSLAFSHKSNINKLTPSDLRLAIGRSNGNIEIWNPRNNWFQEMVIEGGKDRSIEGLCWSNVNGESLRLFSIGGSTVVTEWDLATGLPLRNYDCNSGVIWSISINDSQDKLSVGCDNGTVVLIDISGGPGVLEHDTILMRQEARVLTLAWKKDDFVIGGCSDGRIRIWSAQKNDENMGRLLHTMKVDKAKKESTLVWSVIYLPRTDQIASGDSTGSIKFWDFQFATLNQSFKAHDADVLCLTTDTDNNYVFSAGVDRKIFQFSQNTNKSQKNNRWVNSSNRLLHGNDIRAICAYQSKGADFLVSGGVEKTLVINSLTSFSNGNYRKMPTVEPYSKNVLVNKEQRLVVSWSESTVKIWTMGTDSSTEQNYKLVCKLTLKDDQNISTCSLSPDGQVLVVGRPSTTKVFHLQPVGNKLKVTKLDNDLLLRTSTKLVKFIDNSKIVICSCEDDVFIVDLESEEDEKPQEVELLEVTSTKSSIKVPYINRINHLEVDQNIAVISRGCGVVDILDLKARISKPLARLNNFITAVHINTSRKSVVVITADNKIYEFNMNLNSEAENEDSESVLTQWSKNNTDNLPKEWKTLKENCVGIFSDIENSSRLWFWGATWISRIDFDVDFPINKRRKQKKRTHEGLTITDESNFMNDEEDDEDDDIDMEISENLNVLLNQGNKIKSTDVQRNEESSGHFFFTDKYKPLLFVDLISSNELAIIERNPLTFHSKQKAFIQPKLVF"
–,–,–,binds,binds,binds,"Utp13 (recombinant) (protein, UniProt Q05946 1-817) MDLKTSYKGISLNPIYAGSSAVATVSENGKILATPVLDEINIIDLTPGSRKILHKISNEDEQEITALKLTPDGQYLTYVSQAQLLKIFHLKTGKVVRSMKISSPSYILDADSTSTLLAVGGTDGSIIVVDIENGYITHSFKGHGGTISSLKFYGQLNSKIWLLASGDTNGMVKVWDLVKRKCLHTLQEHTSAVRGLDIIEVPDNDEPSLNLLSGGRDDIINLWDFNMKKKCKLLKTLPVNQQVESCGFLKDGDGKRIIYTAGGDAIFQLIDSESGSVLKRTNKPIEELFIIGVLPILSNSQMFLVLSDQTLQLINVEEDLKNDEDTIQVTSSIAGNHGIIADMRYVGPELNKLALATNSPSLRIIPVPDLSGPEASLPLDVEIYEGHEDLLNSLDATEDGLWIATASKDNTAIVWRYNENSCKFDIYAKYIGHSAAVTAVGLPNIVSKGYPEFLLTASNDLTIKKWIIPKPTASMDVQIIKVSEYTRHAHEKDINALSVSPNDSIFATASYDKTCKIWNLENGELEATLANHKRGLWDVSFCQYDKLLATSSGDKTVKIWSLDTFSVMKTLEGHTNAVQRCSFINKQKQLISCGADGLIKIWDCSSGECLKTLDGHNNRLWALSTMNDGDMIVSADADGVFQFWKDCTEQEIEEEQEKAKLQVEQEQSLQNYMSKGDWTNAFLLAMTLDHPMRLFNVLKRALGESRSRQDTEEGKIEVIFNEELDQAISILNDEQLILLMKRCRDWNTNAKTHTIAQRTIRCILMHHNIAKLSEIPGMVKIVDAIIPYTQRHFTRVDNLVEQSYILDYALVEMDKLF"
